The record followed here is article PMC10817901.

Amino acid sequences for entries named in this document (tags omitted).
UniProt O45495: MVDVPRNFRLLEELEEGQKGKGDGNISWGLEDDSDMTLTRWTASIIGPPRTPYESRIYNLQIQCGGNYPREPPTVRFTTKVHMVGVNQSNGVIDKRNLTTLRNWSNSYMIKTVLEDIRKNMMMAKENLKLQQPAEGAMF
UniProt P35129: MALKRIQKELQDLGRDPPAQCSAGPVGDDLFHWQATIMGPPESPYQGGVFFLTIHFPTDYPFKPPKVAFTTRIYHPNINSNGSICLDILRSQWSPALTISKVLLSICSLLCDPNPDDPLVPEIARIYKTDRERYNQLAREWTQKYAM

Positions count from the first letter of the chain named. No constants are given. Whether binding was seen depends on the method and setting. Some results given as binding are weak or reduced against the parent protein; the word gives no strength.

To fix the notation:
T1: MARC-3 N-terminal cytoplasmic region (MARC-3N, 1-98 aa) (C. elegans) (UniProt Q93227)
T1 sequence: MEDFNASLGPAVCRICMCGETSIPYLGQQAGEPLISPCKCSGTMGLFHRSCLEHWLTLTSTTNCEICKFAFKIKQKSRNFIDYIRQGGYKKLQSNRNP

T2: C38S-substituted MARC-3N (C. elegans) (UniProt Q93227)
T2 sequence: T1 sequence with C38S

T3: MARC-3 C-terminal cytoplasmic region (MARC-3C, 179-431 aa) (C. elegans) (UniProt Q93227)
T3 sequence: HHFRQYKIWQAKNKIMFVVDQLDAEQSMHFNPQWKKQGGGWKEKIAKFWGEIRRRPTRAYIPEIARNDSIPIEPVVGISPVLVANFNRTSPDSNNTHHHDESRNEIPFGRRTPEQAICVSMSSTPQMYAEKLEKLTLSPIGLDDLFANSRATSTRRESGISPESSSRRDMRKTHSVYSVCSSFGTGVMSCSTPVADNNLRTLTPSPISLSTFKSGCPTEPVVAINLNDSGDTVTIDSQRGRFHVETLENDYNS

B1: EGG-3 (full length, 1-555 aa) (protein, UniProt Q20402 1-555)
chain: MRTSDSHLPLSNLARSDSIEFKDAVINEKWVHSANRRKGHLTPKAPEKKSGWFGGQKSEEELLMERVEQHELEELQTFIAQKLFRVDGIICDEETRILLVEKLMNAKEYPTINHDELAHRYGSSMAGWLRDRLVPSMSDCSSVLQRAAAEFYQNKMSDPLCNWGQLNPEHVSMVAARIAKFSEEMSSKVKWSLLVEPGKFSCHLTEFVQEFNRLDRMFVSNELSDEESLQTAFNANYLTKARSKMVPCAEFSRVKLNDGLGRLDDRNELRNGMFSDEHEFLQEEGYTAKSTYGTTDFIHANYVKGGPLLNTFICAQAPLKNTQEDFWRMVFQEKCQFIVMLNSAVDSSTLGPLDSANRNHCPYYWPRAENESLRFGSFHITCMKVDSKADPLFTITKLKVQKVGGNLLDAEFDEELFLEHWQWDWQYLGDVHWPFRVLRKARQLSTPTIVQCIDGCSKSGTLVSIETALMHFIRGSPITKSLILQSCVFVRLQRRLSVSSVLLYLFIYRVILRWIEPYVNKWYHRAALGLRFKSIGFIQKYNAMIQEFSRITPAY
B2: EGG-4 (full length, 1-753 aa) (protein, UniProt O01767 1-753)
chain: MALNSEVMFREQINAMRSQAGRKRATSLQSFCSGNTDDSSADSTDNMDMMVDYPQQKGVSCMRARFNSESTLSKSFRKKVKKLAQKDRRSKERLNGNSEEDAIEVPRGAPSTYAAPSKLRKSKALDCLVSEKPKDEGRREDSGHGADIEMAKGHFNNVRMKVFAARTAMQVEPALVMKTRKALEMKNAVLENHQSPGAFSLHAAYKIAASAESRVGSITPCNKKVTKEAMANLIRSSYDDTEITQELLFSSKFDTKWKGRYTDIYMRRDENGKKPKRPVNGQGWVMPLKSICEKFGINSTFFTNHRIDLKSARDQVLLMRLLSHDQTSTWISDIHPEAVKNETMAEYLLRELDASTMQKRVQAFKANVLADRDRVRVAGQFYNNIRIGKRMFGAARKAKYLSTIIGGMERRFEILENSVNHIPFTHSASDNNQEKCRNPRVHCKDSTRIALQFPRGQYLGDFIHANRISGKPLFNEFIMTQAPMKNTVDDFWRMVWQEEVPYIVMLTSRKEPERCEYYWPKSPSDPAVTVPGGLRIENFGVYQAPDPLFRVTHLRLIGPDREERHVEHWQGDVNNSSNMYSPLNILRLLRNASKPVVIHDHLGVSRAACLVAAEIAICSLLRGPTYKYPVQRAVQFLRQRRPFSIETPMQYIFVHRLVAFFFRDVIGSAKELDVDYERWLQERSERMFLDDLAAPIPGYRLLSPRADPDIVRMVGRPERPNYRREAPDCVGEMPNKVATVDGILSPAKSVFEF
B3: EGG-5 (full length, 1-753 aa) (protein, UniProt O61789 1-753)
chain: B2 chain with R139S, N157D, T255S, M344L, K444R, T739A
B4: CHS-1 (the largest central cytoplasmic region, 418-836 aa) (domain or fragment, UniProt G5ECD6 418-836)
chain: RLVRQRYFDTNEEIISSMPPVCNGLCIEQSLVVFQHSLNRQEKTMLTEEEDISDENDELRIRNDEVDRVSTVYGCATMWHETETEMRQVLRSILKLDVDHATRMNNKKANELRYRLEGHIFFDDAWEDVEEDGIEKRQPNEYFNMFFDLLNEMTGERLNEEGKMETRILVNTPYGGRLVVKLPSGTLLFVHLKDKKMIRHKKRWSQVMYMYYLLGHRIMDCPLSIEDRQQMADNTFILAIDGDSKFEPDALLRLLHLMNAKSDIGCACGRIHPIGNGIMVWYQKFEYAIAHWFQKAAEHVFGCVLCAPGCFSLFRASALMDDNIMHKYTKTASEPRHYVQYDQGEDRWLSTLLLKQGYRIEYAAASDAETYAPEGFEEFFNQRRRWTPSSIANTVDLLMDYKRASENNDAISYAYIAYQ
B5: UBC-13 (full length, 1-151 aa) (enzyme, UniProt Q95XX0 1-151)
chain: MAGQLPRRIIKETQRLLADPVPGISANPDESNARYFHVMIAGPDDSPFAGGVFKLELFLPEEYPMAAPKVRFMTKIYHPNIDKLGRICLDILKDKWSPALQIRTVLLSIQALLSAPNPEDPLATDVAEQWKTNEAEAIKTAKQWTMNYAQA

One assay has as its target T1, MARC-3 N-terminal cytoplasmic region (MARC-3N, 1-98 aa) (C. elegans). The experiment in a line: two-hybrid; DupLEX-A Yeast Two-Hybrid System; MARC-3 regions as bait (pEG202), other proteins as prey (pJG4-5); yeast EGY48 with the lacZ reporter pSH18-34; X-gal plates.
On to “UEV-1 (full length, 1-139 aa) (from UniProt O45495 1-139)”, for which the binding result was “no binding”.
Turning to “LET-70 (full length, 1-147 aa) (from UniProt P35129 1-147) (enzyme)”, the binding result is given as “binds”.

In another assay the target is T2, C38S-substituted MARC-3N (C. elegans). The assay is described as above.
“LET-70 (full length, 1-147 aa) (from UniProt P35129 1-147) (enzyme)”: the binding result is listed as “no binding”.

A further assay has as its target T3, MARC-3 C-terminal cytoplasmic region (MARC-3C, 179-431 aa) (C. elegans). Described as above.
B1: the binding entry is recorded as “no binding”.
Still for that read-out and setting: as for B2, the entry is “no binding”; as for B3, “no binding”; as for MSQQPGSARRVNFPEEPMTLGEKFSHRMDQLKEIIADGGCSRAAKCVS (domain or fragment, UniProt Q09967 1-48) [EGG-1 (the N-terminal cytoplasmic region, 1-48 aa)], “no binding”.
On the same count and under the same terms, with MSQQAGNAQRGRFDEEPMSLGEKISHRMDQLKEIVSSSCPCAGKFPPVA (domain or fragment, UniProt Q21629 1-49) [EGG-2 (the N-terminal cytoplasmic region, 1-49 aa)] the entry was “no binding”; with B4, “no binding”.

A further assay deals with T1, MARC-3 N-terminal cytoplasmic region (MARC-3N, 1-98 aa) (C. elegans). The assay is described as above. The source holds these as a separate data set.
As to B1, the binding result is “binds”.
Still for that read-out and setting: with B2 the entry was “no binding”; with B3, “no binding”; with MSQQPGSARRVNFPEEPMTLGEKFSHRMDQLKEIIADGGCSRAAKCVS (domain or fragment, UniProt Q09967 1-48) [EGG-1 (the N-terminal cytoplasmic region, 1-48 aa)], “no binding”.
On the same count and under the same terms, as for MSQQAGNAQRGRFDEEPMSLGEKISHRMDQLKEIVSSSCPCAGKFPPVA (domain or fragment, UniProt Q21629 1-49) [EGG-2 (the N-terminal cytoplasmic region, 1-49 aa)], the entry is “no binding”; as for B5, “no binding”; as for B4, “no binding”.

For the next assay, the target named is T2, C38S-substituted MARC-3N (C. elegans). The assay is described as above. This is another data set of the same source.
With B1, the binding result is on record as “no binding”.
